Consider 18 molecules from the supplement of paper PMC10369915.

The list shows a part of the results. Rule as the data show it: active = 3.2 or more and inactive = the rest. Most of these values are background signal.
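Also: displayed peptides selected on beads carrying the immobilized SH2 domain, with library peptides lacking any tyrosine serving as negative controls.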

The target of one experiment is SHP2 C-SH2 domain E139D. Nature of the experiment: enrichment score (SH2-bound / input frequency) (ratio); bacterial display of known human phosphotyrosine sites (pTyr-Var adds point mutants) read by sequencing; higher = stronger binding; tyrosines were phosphorylated by kinases first. The following applies: peptide library: pTyr-Var.
On to RLLVVYPGTQR [HBB_Y36_W38G], for which the enrichment score was inactive: 1.47.
Take RNLLIYTEFGK [HGD_Y166_G161R]: the enrichment score was inactive: 0.651.
The same measure, in the same setting: the figure for TTKGSYSLFVR [HCK_Y180_S183Y_YF] is inactive: 0.931.
Still for that read-out and setting: for FRPPYYHRDCM [HGD_Y334_N337D] the value was inactive: 2.21.
Same read-out and setting: the figure for TTKGSYSLYVR [HCK_Y180_S183Y] is inactive: 0.839; for RLLVLYPWTQR [HBB_Y36_V35L] it is inactive: 1.98; for IEDNKYTAREG [HCK_Y411_E410K] it is inactive: 0.636.
RELSWYRGQRP [HESX1_Y106_R109Q]: the enrichment score was inactive: 0.367.
Turning to TVINKYQGKLF [HGD_Y249], the enrichment score is inactive: 0.999.
Regarding RELSWYRGRRP [HESX1_Y106], the enrichment score is inactive: 0.17.
Still for that read-out and setting: for APSEFYDGDHD [HDAC3_Y414_N411S] the value was inactive: 0.715.
As to RLLVVYPWTQK [HBG1_Y36_R41K], the enrichment score is active: 4.21.
On the same count and under the same terms, the figure for RLLVVYPWTRR [HBB_Y36_Q40R] is inactive: 0.177; for QYQEKYKQMEQ [HCN4_Y531_V534M] it is inactive: 0.739; for FSPPFYHRNCM [HGD_Y334_R330S_YF] it is inactive: 1.34.
Same read-out and setting: the figure for HTKKNYGNSSV [HDX_Y197_A193T] is inactive: 0.552; for QRIHDYFEHRF [HCN4_Y554_YF] it is inactive: 2.71.
Turning to RLLVVYPWTQG [HBG2_Y36_R41G], the enrichment score was active: 4.02.

A further experiment has as its target SHP2 C-SH2 domain wild-type. The description is as above. The conditions noted are these: peptide library: pTyr-Var.
For the molecule RLLVVYPGTQR [HBB_Y36_W38G], the enrichment score is inactive: 1.44.
Still for that read-out and setting: the figure for RNLLIYTEFGK [HGD_Y166_G161R] is inactive: 1.04.
As for TTKGSYSLFVR [HCK_Y180_S183Y_YF], the enrichment score was inactive: 0.705.
The same measure, in the same setting: the figure for FRPPYYHRDCM [HGD_Y334_N337D] is inactive: 2.34.
The same measure, in the same setting: for TTKGSYSLYVR [HCK_Y180_S183Y] the value was inactive: 0.818.
On the same count and under the same terms, the figure for RLLVLYPWTQR [HBB_Y36_V35L] is inactive: 1.41; for IEDNKYTAREG [HCK_Y411_E410K] it is inactive: 0.577; for RELSWYRGQRP [HESX1_Y106_R109Q] it is inactive: 0.343.
As to TVINKYQGKLF [HGD_Y249], the enrichment score is inactive: 0.8.
Same read-out and setting: the figure for RELSWYRGRRP [HESX1_Y106] is inactive: 0.334.
On the same count and under the same terms, for APSEFYDGDHD [HDAC3_Y414_N411S] the value was inactive: 0.536.
The same measure, in the same setting: for RLLVVYPWTQK [HBG1_Y36_R41K] the value was active: 3.58; for RLLVVYPWTRR [HBB_Y36_Q40R], inactive: 0.352; for QYQEKYKQMEQ [HCN4_Y531_V534M], inactive: 0.816.
Turning to FSPPFYHRNCM [HGD_Y334_R330S_YF], the enrichment score was inactive: 1.18.
Still for that read-out and setting: the figure for HTKKNYGNSSV [HDX_Y197_A193T] is inactive: 0.522.
QRIHDYFEHRF [HCN4_Y554_YF]: the enrichment score was inactive: 1.81.
As for RLLVVYPWTQG [HBG2_Y36_R41G], the enrichment score is active: 3.71.

The next experiment addresses SHP2 N-SH2 domain L43F. The description is as above. The following applies: peptide library: pTyr-Var.
For RLLVVYPGTQR [HBB_Y36_W38G], the enrichment score is inactive: 1.99.
On the same count and under the same terms, for RNLLIYTEFGK [HGD_Y166_G161R] the value was inactive: 1.35; for TTKGSYSLFVR [HCK_Y180_S183Y_YF], inactive: 1.02; for FRPPYYHRDCM [HGD_Y334_N337D], inactive: 2.1.
Same read-out and setting: for TTKGSYSLYVR [HCK_Y180_S183Y] the value was inactive: 0.728; for RLLVLYPWTQR [HBB_Y36_V35L], inactive: 1.6; for IEDNKYTAREG [HCK_Y411_E410K], inactive: 0.707.
On the same count and under the same terms, for RELSWYRGQRP [HESX1_Y106_R109Q] the value was inactive: 0.409; for TVINKYQGKLF [HGD_Y249], inactive: 0.782; for RELSWYRGRRP [HESX1_Y106], inactive: 0.198.
On to APSEFYDGDHD [HDAC3_Y414_N411S], for which the enrichment score was inactive: 0.624.
Consider RLLVVYPWTQK [HBG1_Y36_R41K], for which the enrichment score was active: 3.85.
On the same count and under the same terms, for RLLVVYPWTRR [HBB_Y36_Q40R] the value was inactive: 0.232; for QYQEKYKQMEQ [HCN4_Y531_V534M], inactive: 0.49; for FSPPFYHRNCM [HGD_Y334_R330S_YF], inactive: 1.11.
HTKKNYGNSSV [HDX_Y197_A193T]: the enrichment score was inactive: 0.708.
Regarding QRIHDYFEHRF [HCN4_Y554_YF], the enrichment score was inactive: 1.46.
Same read-out and setting: for RLLVVYPWTQG [HBG2_Y36_R41G] the value was active: 3.46.

In another experiment the target is SHP2 N-SH2 domain T42A. Described as above. The following applies: peptide library: pTyr-Var.
For the molecule RLLVVYPGTQR [HBB_Y36_W38G], the enrichment score is inactive: 1.46.
On the same count and under the same terms, the figure for RNLLIYTEFGK [HGD_Y166_G161R] is inactive: 1.48.
For TTKGSYSLFVR [HCK_Y180_S183Y_YF], the enrichment score was inactive: 0.481.
Take FRPPYYHRDCM [HGD_Y334_N337D]: the enrichment score is inactive: 2.06.
Turning to TTKGSYSLYVR [HCK_Y180_S183Y], the enrichment score was inactive: 0.632.
Still for that read-out and setting: for RLLVLYPWTQR [HBB_Y36_V35L] the value was inactive: 1.67; for IEDNKYTAREG [HCK_Y411_E410K], inactive: 0.552.
RELSWYRGQRP [HESX1_Y106_R109Q]: the enrichment score was inactive: 0.27.
For the molecule TVINKYQGKLF [HGD_Y249], the enrichment score was inactive: 0.684.
With RELSWYRGRRP [HESX1_Y106], the enrichment score was inactive: 0.279.
Still for that read-out and setting: for APSEFYDGDHD [HDAC3_Y414_N411S] the value was inactive: 0.534; for RLLVVYPWTQK [HBG1_Y36_R41K], active: 3.29.
Same read-out and setting: for RLLVVYPWTRR [HBB_Y36_Q40R] the value was inactive: 0.187; for QYQEKYKQMEQ [HCN4_Y531_V534M], inactive: 0.539.
Turning to FSPPFYHRNCM [HGD_Y334_R330S_YF], the enrichment score was inactive: 0.956.
For the molecule HTKKNYGNSSV [HDX_Y197_A193T], the enrichment score is inactive: 0.414.
Still for that read-out and setting: for QRIHDYFEHRF [HCN4_Y554_YF] the value was inactive: 1.5; for RLLVVYPWTQG [HBG2_Y36_R41G], active: 3.38.

Another experiment concerns the target SHP2 N-SH2 domain T52S. The experiment is described as above. The conditions noted are these: peptide library: pTyr-Var.
As for RLLVVYPGTQR [HBB_Y36_W38G], the enrichment score was inactive: 1.67.
For RNLLIYTEFGK [HGD_Y166_G161R], the enrichment score is inactive: 1.26.
On the same count and under the same terms, the figure for TTKGSYSLFVR [HCK_Y180_S183Y_YF] is inactive: 1.01; for FRPPYYHRDCM [HGD_Y334_N337D] it is inactive: 2.26; for TTKGSYSLYVR [HCK_Y180_S183Y] it is inactive: 0.777.
Consider RLLVLYPWTQR [HBB_Y36_V35L], for which the enrichment score is inactive: 1.77.
On the same count and under the same terms, the figure for IEDNKYTAREG [HCK_Y411_E410K] is inactive: 0.318; for RELSWYRGQRP [HESX1_Y106_R109Q] it is inactive: 0.27; for TVINKYQGKLF [HGD_Y249] it is inactive: 0.674.
The same measure, in the same setting: the figure for RELSWYRGRRP [HESX1_Y106] is inactive: 0.208; for APSEFYDGDHD [HDAC3_Y414_N411S] it is inactive: 0.694.
As for RLLVVYPWTQK [HBG1_Y36_R41K], the enrichment score is active: 3.26.
As for RLLVVYPWTRR [HBB_Y36_Q40R], the enrichment score was inactive: 0.281.
As for QYQEKYKQMEQ [HCN4_Y531_V534M], the enrichment score was inactive: 0.788.
As to FSPPFYHRNCM [HGD_Y334_R330S_YF], the enrichment score was inactive: 0.982.
Still for that read-out and setting: for HTKKNYGNSSV [HDX_Y197_A193T] the value was inactive: 0.525.
On the same count and under the same terms, the figure for QRIHDYFEHRF [HCN4_Y554_YF] is inactive: 2.27; for RLLVVYPWTQG [HBG2_Y36_R41G] it is active: 3.49.

In a further experiment the target is SHP2 N-SH2 domain wild-type. The experiment is described as above. The conditions noted are these: peptide library: pTyr-Var.
Turning to RLLVVYPGTQR [HBB_Y36_W38G], the enrichment score was inactive: 1.65.
Turning to RNLLIYTEFGK [HGD_Y166_G161R], the enrichment score was inactive: 1.16.
Regarding TTKGSYSLFVR [HCK_Y180_S183Y_YF], the enrichment score was inactive: 1.02.
Still for that read-out and setting: for FRPPYYHRDCM [HGD_Y334_N337D] the value was inactive: 1.99; for TTKGSYSLYVR [HCK_Y180_S183Y], inactive: 0.932; for RLLVLYPWTQR [HBB_Y36_V35L], inactive: 1.63.
In the case of IEDNKYTAREG [HCK_Y411_E410K], the enrichment score was inactive: 0.876.
On the same count and under the same terms, the figure for RELSWYRGQRP [HESX1_Y106_R109Q] is inactive: 0.279; for TVINKYQGKLF [HGD_Y249] it is inactive: 0.898.
The same measure, in the same setting: the figure for RELSWYRGRRP [HESX1_Y106] is inactive: 0.289.
APSEFYDGDHD [HDAC3_Y414_N411S]: the enrichment score was inactive: 0.597.
The same measure, in the same setting: the figure for RLLVVYPWTQK [HBG1_Y36_R41K] is active: 3.5; for RLLVVYPWTRR [HBB_Y36_Q40R] it is inactive: 0.22; for QYQEKYKQMEQ [HCN4_Y531_V534M] it is inactive: 0.879.
For the molecule FSPPFYHRNCM [HGD_Y334_R330S_YF], the enrichment score is inactive: 1.24.
As for HTKKNYGNSSV [HDX_Y197_A193T], the enrichment score was inactive: 0.608.
As for QRIHDYFEHRF [HCN4_Y554_YF], the enrichment score was inactive: 1.77.
RLLVVYPWTQG [HBG2_Y36_R41G]: the enrichment score is active: 3.74.
